The campaign covered roughly 390,000 compounds. About 4,700 (1.2%) were called active. Inconclusive results, whose numbers are uncertain, are shown with a selection of clear calls. The call rests on the fitted dose curve; in most records, active means well fitted inhibition curve with a large enough effect; inconclusive means small, poorly fitted or top-dose-only effect, or another doubt; inactive means no such curve, though single readings can be large or run the other way. Potencies of inconclusive entries are doubtful fits and often do not repeat.
molecular target: DNA polymerase eta (Homo sapiens) (UniProt Q9Y253); test: qHTS for Inhibitors of Polymerase Eta; conditions: recombinant Pol eta, fluorescent DNA replication assay; series mostly up to 114 µM
Sequence of UniProt Q9Y253 (Q9Y253 whole entry, looked up): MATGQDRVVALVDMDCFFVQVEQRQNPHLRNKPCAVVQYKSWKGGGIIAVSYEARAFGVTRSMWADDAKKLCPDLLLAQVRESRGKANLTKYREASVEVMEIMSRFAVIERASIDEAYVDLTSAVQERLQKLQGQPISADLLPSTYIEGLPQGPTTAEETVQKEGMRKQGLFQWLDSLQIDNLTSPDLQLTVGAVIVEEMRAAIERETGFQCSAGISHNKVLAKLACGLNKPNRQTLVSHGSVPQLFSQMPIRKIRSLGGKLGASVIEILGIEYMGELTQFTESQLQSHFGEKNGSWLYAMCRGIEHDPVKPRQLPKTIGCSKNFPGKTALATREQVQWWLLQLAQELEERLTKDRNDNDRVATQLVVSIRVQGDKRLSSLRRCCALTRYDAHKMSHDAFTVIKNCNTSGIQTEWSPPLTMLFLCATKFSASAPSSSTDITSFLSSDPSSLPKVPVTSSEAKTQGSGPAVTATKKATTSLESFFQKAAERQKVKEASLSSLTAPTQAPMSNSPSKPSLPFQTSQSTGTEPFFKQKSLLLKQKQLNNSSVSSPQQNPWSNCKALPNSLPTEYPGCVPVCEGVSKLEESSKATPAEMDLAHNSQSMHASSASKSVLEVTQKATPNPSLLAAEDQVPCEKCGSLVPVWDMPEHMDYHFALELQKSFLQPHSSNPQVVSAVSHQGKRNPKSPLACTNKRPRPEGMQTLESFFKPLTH
Procedure, shortened: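 Pol eta (10 nM) was preincubated with compounds for 15 min at room temperature, after which fluorescent replication substrate (50 nM final) was added to start the reaction. Fluorescence was read kinetically at 0 and 10 min.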
Potency means the concentration at half of the fitted maximal effect; tags describe the fitted curve by direction and shape.

| SMILES | Potency |
| --- | --- |
| Cc1ccc(OCCSc2nc3ccccc3n2CCC(=O)O)c(C(C)C)c1 | inconclusive: 100 µM [inhibitor, partial curve, poor fit] |
| C=C(C)C(=O)NC1=NN(c2ccccc2)C(=O)C1 | inconclusive: 15.8 µM [inhibitor, partial curve, poor fit] |
| COc1cc(/C=C2\SC(=S)N(N3CCOCC3)C2=O)ccc1O | inconclusive: 35.5 µM [inhibitor, single point] |
| COc1ccc(CNC(=O)C(=O)NCC2CCCO2)cc1 (centres undefined) | inactive |
| CC(C)CC1NC(=O)c2cccnc2-n2c1nc1cc(F)ccc1c2=O (centres undefined) | inactive |
| Cc1nnc(SCC2=C(C(=O)O)N3C(=O)C(NC(=O)c4cccc(F)c4F)C3SC2)s1 (centres undefined) | active: 31.6 µM |
| CCOc1ccccc1C=C1SC(=S)N(CC)C1=O | inactive |
| COc1cc2c(C(=O)Nc3cc(OC)c(OC)c(OC)c3)cn(C)c(=O)c2cc1OC | inactive |
| O=C(Oc1coc(CSc2nnc(NC(=O)C3CC3)s2)cc1=O)c1ccccc1 | inconclusive: 22.4 µM [inhibitor, single point] |
| O=C(c1ccccc1F)N1CCN(C2CCC(c3ccccc3)CC2)CC1 (centres undefined) | inconclusive: 4.47 µM [inhibitor, partial curve, poor fit] |
| O=C(COc1ccccc1Cl)Nc1nc(-c2ccncc2)cs1 | inconclusive: 39.8 µM [inhibitor, partial curve, poor fit] |
| CCOC(=O)C1=C(COC(=O)c2ccc(Br)o2)NC(=O)NC1C (centres undefined) | inconclusive: 79.4 µM [inhibitor, partial curve, poor fit] |
| O=C(CSc1nc(-c2ccccc2)nc2ccccc12)Nc1cccc(C(=O)O)c1 | active: 35.5 µM |
| CCOC(=O)c1[nH]c2c(c1C)C(=O)CC(c1ccc(F)cc1)C2 (centres undefined) | inconclusive: 79.4 µM [inhibitor, partial curve] |
| Cc1nn(-c2ccccc2)c(N2CCCCC2)c1/C=N/NC(=O)c1ccncc1 | inconclusive: 89.1 µM [inhibitor, partial curve, poor fit] |
| CC(C)CC(/C(O)=C(\C#N)c1nc2ccccc2[nH]1)N1C(=O)c2ccccc2C1=O (centres undefined) | inconclusive: 50.1 µM [inhibitor, partial curve, poor fit] |
| COc1ccc(Cn2c(-c3ccco3)nc3c(c(=O)c4ccccc4n3C)c2=O)cc1 | inactive |
| CCOC(=O)c1ccc(NC(=O)CSc2nc(N)c(NC(=O)c3ccc(Br)o3)c(=O)[nH]2)cc1 | inconclusive: 39.8 µM [inhibitor, partial curve, poor fit] |
| CCn1cc(C(=O)N2CCN(c3ccccc3)CC2)c(=O)c2cc(S(=O)(=O)N3CCC(C)CC3)ccc21 | inconclusive: 79.4 µM [inhibitor, partial curve, poor fit] |
| O=C(O)c1ccc(Nc2ccc(Cl)c(Cl)c2)c([N+](=O)[O-])c1 | inconclusive: 79.4 µM [inhibitor, partial curve, poor fit] |
| O=C(N/C=C/c1ccco1)Nc1cccc(Cl)c1 | inconclusive: 39.8 µM [inhibitor, partial curve] |
| CCNc1ccc(Br)cc(C(=O)/C=C/c2c(Cl)cccc2Cl)c1=O | active: 17.8 µM |
| O=C1c2ccccc2C(=O)N1/N=C/c1ccc(O)c(O)c1 | inconclusive: 17.8 µM [inhibitor, partial curve, poor fit] |

| SMILES | Potency |
| --- | --- |
| CCCCCCSc1cc(-c2nc3ccc(Cl)cn3c2NCCCC)ccc1OC | inconclusive: 89.1 µM [inhibitor, partial curve, poor fit] |
| Cc1ccc(S(=O)(=O)c2nc(-c3ccccc3)oc2SCC(=O)NC2CCCCC2)cc1 | inactive |
| CC(C)Cc1ccc(C(C)CC2=CCC(CN(C)C)C2=O)cc1 (centres undefined) | inconclusive: 22.4 µM [inhibitor, partial curve, poor fit] |
| O=C(Nc1ccc(F)c(Cl)c1)C1CCCN1S(=O)(=O)c1ccc(F)cc1 (centres undefined) | inactive |
| COc1cccc(C2Nc3ccccc3-c3nnc(SCc4ccccc4)nc3O2)c1OC (centres undefined) | inconclusive: 100 µM [inhibitor, partial curve, poor fit] |
| O=C(O)CCN1C(=O)/C(=C/c2ccc(-c3nc4ccccc4s3)o2)SC1=S | active: 3.16 µM |
| O=C(O)c1ccc(N/N=C/C2=C(N3CCOCC3)C(=C\c3ccccc3)/CC2)cc1 | active: 50.1 µM |
| Cc1sc(NC(=O)CSc2nnc3scc(-c4ccccc4)n23)c(C#N)c1C | inconclusive: 100 µM [inhibitor, partial curve, poor fit] |
| Cc1ccc2c(c1C)-c1c(ccc(C)c1C)C(=O)C2=O | active: 22.4 µM |
| COc1cccc(OC)c1Cn1nnc2c(=O)[nH]c(C3CCN(C(=O)c4ccccc4)CC3)nc21 | inactive |
| COc1ccc(/C=C/C(=O)NC(=S)Nc2ccc(S(=O)(=O)Nc3nccnc3OC)cc2)cc1 | inconclusive: 89.1 µM [inhibitor, single point] |
| Cc1ccnc2ccc(-c3nc4ccccc4o3)cc12 | inconclusive: 10 µM [inhibitor, partial curve, poor fit] |
| Cc1ccc(C2C(/C=C3/SC(=S)NC3=O)=C(c3cccs3)Oc3ccccc32)cc1 (centres undefined) | active: 70.8 µM |
| CCOC(=O)C(C)C(C)=O (centres undefined) | inconclusive: 89.1 µM [inhibitor, single point] |
| NC(=O)c1ccc(-c2nnc(Nc3ccc(S(N)(=O)=O)cc3)c3ccccc23)cc1 | inconclusive: 50.1 µM [inhibitor, partial curve, poor fit] |
| CCC(C)(C)n1nnnc1C(c1ccc(OC)c(OC)c1)N1CCN(c2ccc(F)cc2)CC1 (centres undefined) | inconclusive: 89.1 µM [inhibitor, partial curve, poor fit] |
| N#C/C(=N\Nc1cccc([N+](=O)[O-])c1)C(=O)c1ccc(Br)cc1 | active: 79.4 µM |
| CC1=C(c2ccc(C(C)C)cc2)S(=O)(=O)N=C1N1CCN(C(=O)c2ccco2)CC1 | inactive |
| O=C1Cc2cc(O)ccc2O1 | inactive |
| COc1ccc2c(CC(=O)OCC(=O)Nc3ccc(S(N)(=O)=O)cc3)coc2c1 | inactive |
| CC(C)c1ccc(S(=O)(=O)N2CCN(C(=O)C3CC3C)CC2)cc1 (centres undefined) | inconclusive: 39.8 µM [inhibitor, partial curve, poor fit] |
| O=C(N/N=C/c1c[nH]c2ccc(Br)cc12)c1ccncc1 | inconclusive: 15.8 µM [inhibitor, partial curve, poor fit] |
| COc1ccc(CN2C(=O)c3ccccc3C(/C=N\OCc3ccc(C)cc3)C2=O)cc1 (centres undefined) | inconclusive: 31.6 µM [inhibitor, partial curve, poor fit] |

| SMILES | Potency |
| --- | --- |
| CS(=O)(=O)c1cccc(C(=O)OCC(=O)Nc2ccc3c(c2)OCO3)c1 | inactive |
| Cc1cccc([N+](=O)[O-])c1C(=O)O | inconclusive: 89.1 µM [inhibitor, single point] |
| ClCCn1c(CCl)nc2ccc(Cl)cc21 | inactive |
| Cc1c(Cl)cccc1N=C1SCCN1C(=O)CN1C(=O)NC2(CCCC2)C1=O | inconclusive: 79.4 µM [inhibitor, partial curve, poor fit] |
| O=C(CSc1nnc(SCC(=O)c2ccco2)s1)c1ccco1 | active: 15.8 µM |
| COc1ccc(S(=O)(=O)NCc2cccnc2)cc1NC(=O)c1ccccc1C | inconclusive: 56.2 µM [inhibitor, partial curve, poor fit] |
| O=C(NCC1CCCO1)c1cc(-c2ccco2)nc2ccccc12 (centres undefined) | active: 15.8 µM |
| COc1cc(/C=C/C=C2/CC/C(=C/C=C/c3ccc(O)c(OC)c3)C2=O)ccc1O | active: 5.01 µM |
| CCN(CC)CCn1c2c(c(SCC(=O)Nc3ccc4c(c3)OCCO4)nc1=O)CCCC2 | inactive |
| CC1CCCC2(C1)NC(=S)N(c1ccccc1)N2 (centres undefined) | inactive |
| Cc1cccc(C)c1NC(=O)CN(C)S(=O)(=O)c1ccc2c(c1)n(C)c(=O)c(=O)n2C | inactive |
| O=C(c1ccc(OCc2cn3ccccc3n2)cc1)N1CCN(S(=O)(=O)c2ccccc2F)CC1 | inconclusive: 20 µM [inhibitor, partial curve] |
| O=C(Nc1ncn[nH]1)c1cc(S(=O)(=O)Nc2ccc(Cl)cc2)ccc1Cl | inconclusive: 11.2 µM [inhibitor, partial curve, poor fit] |
| Cc1ccc(S(=O)Cc2nc(-c3ccc(C(=O)NC(C)c4ccccc4)cc3)oc2C)cc1 (centres undefined) | inactive |
| NC(=O)c1ccsc1NC(=O)CSc1nncs1 | inconclusive: 15.8 µM [inhibitor, full curve] |
| Cc1cccc(NC(=O)CN2C(=O)CCc3ccccc32)c1C | inactive |
| CCOc1ccc(NC(=O)C2CCN(C(=O)NCc3ccccc3)CC2)cc1 | inconclusive: 39.8 µM [inhibitor, partial curve, poor fit] |
| CCOC(=O)c1c2c(n(-c3ccc(OC)cc3)c1C)C(=O)C(=O)c1ccccc1-2 | active: 3.16 µM |
| CCC(=O)Nc1ccc(C)cc1-c1nc2ccccc2n(Cc2ccccc2)c1=O | inconclusive: 100 µM [inhibitor, partial curve, poor fit] |
| CCc1c(C#N)c(=O)[nH]c(=O)n1-c1ccccc1 | inconclusive: 31.6 µM [inhibitor, partial curve, poor fit] |
| COc1ccc(NC(=O)c2ccc(NC(=O)c3cccs3)cc2)cc1 | inactive |
| CC(=O)N1CCCc2cc(S(=O)(=O)NCc3ccc(OC(C)C)cc3)ccc21 | inactive |
| COc1ccc(-c2nn(-c3ccc(F)cc3F)c3c2cnc2ccc(F)cc23)cc1 | inactive |

— PubChem BioAssay AID588591 (National Center for Advancing Translational Sciences (NCATS), 2011)
